Measured values reported in PubChem BioAssay AID1479 (National Center for Advancing Translational Sciences (NCATS), 2009).
“And” between values parts separate entries of the source, which are not always exact repeats. Equal values may be shown once. The campaign covered roughly 280,000 compounds. About 820 (0.29%) were called active. This list was built around the results that the source calls inconclusive (neither active nor inactive); the mix of calls is not that of the screen. Calls follow the shape of the dose curve; as a rule, active = well fitted curve in either direction with a large enough effect; inconclusive = small, poorly fitted or top-dose-only effect; inactive = flat fitted curve, though single readings scatter. Potencies beside an inconclusive call are fits to weak or partial responses and may not hold up. Some structures have more than one record in an assay (separate samples or runs), and their calls can disagree.

assay: Total Fluorescence Counterscreen for Inhibitors of the Interaction of Thyroid Hormone Receptor and Steroid Receptor Coregulator 2; conditions: TRb/SRC2 Texas Red total fluorescence interference; series mostly up to 106 µM
Description: NIH Molecular Libraries Probe Production Network [MLPCN]
NIH Chemical Genomics Center [NCGC]
Assay Provider: R. Kip Guy, St. Jude Children's Research Hospital
Thyroid receptor (TR) regulates many homeostatic processes including basal metabolism, cardiovascular function, body weight, and lipid trafficking. TR modulators are potential therapeutics for obesity and hyperlipidemias but current thyroid analogs have undesirable side effects, particularly cardiac stimulation. To identify inhibitors that specifically prevent the interaction of TR with the steroid receptor […] 2 (SRC2), a fluorescence polarization assay was screened. This assay detects interaction of the ligand-binding domain of human TRb with a Texas Red labeled SRC2 peptide, corresponding to a 20 amino acid region of the nuclear receptor interaction domain (Arnold et al., 2006). Total fluorescence (555 nm excitation and 632 nm emission) was measured to identify potential fluorescent and light absorbing compounds. Such compounds may be artifacts that interfere with the fluorescence polarization assay.
Arnold, L. A.; Estebanez-Perpina, E.; Togashi, M.; Shelat, A.; Ocasio, C. A.; McReynolds, A. C.; Nguyen, P.; Baxter, J. D.; Fletterick, R. J.; Webb, P.; Guy, R. K. A high-throughput screening method to identify small molecule inhibitors of thyroid hormone receptor coactivator binding. Sci STKE 2006, p 13.
NCGC Assay Protocol Summary:
For screening, 5 uL/well 0.6 uM TRb and 20 nM SRC2 Texas Red in protein buffer (20mM Tris hydrochloride, 100mM NaCl, 10% glycerol, 1mM EDTA, 0.01% NP-40, 1mM DTT, 1uM T3 and 5% DMSO) was dispensed into black solid 1536-well plates (Grenier) using a solenoid-based dispenser. Following transfer of 23 nL compound or DMSO vehicle by a pin tool, the plates were centrifuged 15 s at 1000 RPM and incubated 5 hr at ambient temperature. The plates were read by an Envision (Perkin Elmer) to detect fluorescence polarization of SRC2 Texas Red (555 nm excitation and 632 nm emission). Data were normalized to unbound (all components except TRb) and bound SRC2 Texas Red controls. Total fluorescence (TF) was calculated as follows: TF = S + 2P where S and P are fluorescence readings in the parallel and perpendicular channels, respectively.
Keywords: NIH Roadmap, MLPCN, MLI, MLSMR, qHTS, NCGC, qHTS, thyroid hormone receptor, steroid receptor coactivator, fluorescence polarization
Potency is read from the fitted curve at half-maximal effect; tags tell the direction and shape of the fitted curve or compound fluorescence and quenching.

SMILES | Potency
CCN(CC)c1ccc(/C=C2\C(=O)NC(=O)N(Cc3ccco3)C2=O)cc1 | inconclusive: 44.7 µM [fluorescent, partial curve]
CC(C)[C@@]1(NC(=O)[C@@H]2C[C@@H]3c4cccc5[nH]cc(c45)C[C@H]3N(C)C2)O[C@@]2(O)C3CCCN3C(=O)[C@H](Cc3ccccc3)N2C1=O (some centres not stated) | inconclusive: 28.2 µM [falling, full curve, poor fit]
COc1ccc(C(=O)Nc2ccc(-c3nc4ccccc4s3)c(Cl)c2)cc1Cl | inconclusive: 0.0126 µM [falling, full curve, poor fit]
CCCN1CCC[C@@H]2Cc3cn[nH]c3C[C@H]21 | inactive
COc1ccc(C(=O)N2CCCC2=O)cc1 | inconclusive: 1.12 µM [quencher, full curve]
COc1cc(N2CCOCC2)ccc1C=C1C(=O)NC(=O)NC1=O | active: 31.6 µM [quencher]
C=CCN1CCc2cccc3c2C1Cc1ccc(O)c(O)c1-3 (configuration not stated) | inconclusive: 25.1 µM [quencher, full curve]
CCC(=O)N1N=C(c2c(O)n(CCc3ccccc3)c(=O)[nH]c2=O)CC1c1ccc(OC)c(OC)c1 (configuration not stated) | inactive
CCCCCCCCCCCCOCCOCCOCCOCCOCCOCCOCCOCCOCCO | inconclusive: 0.0891 µM [falling, full curve, poor fit]
CC(C)Nc1ccc(Nc2ccccc2)cc1 | inconclusive: 44.7 µM [fluorescent, partial curve]
CCOC(=O)C1CCN(/C=C2/C(=O)NC(=S)N(c3cccc(OC)c3)C2=O)CC1 | inactive
CCCCC(=O)N/N=C/c1c(O)n(CC)c(=S)n(CC)c1=O | active: 0.316 µM [quencher]
CC[C@]1(O)CC(O[C@@H]2CC(N(C)C)C(O)C(C)O2)c2c(cc3c(c2O)C(=O)c2c(O)ccc(O)c2C3=O)C1C(=O)OC (some centres not stated) | active: 39.8 µM [fluorescent]
Cc1ccc(NC(=O)N(Cc2ccc3c(c2)OCO3)C2CCN(Cc3ccccc3)CC2)cc1C | inconclusive: 15.8 µM [quencher, full curve]
C[C@]12Cc3cn4c(nc3C=C1CCC1C2CC[C@@]2(C)[C@H]1CC[C@@]2(O)C#N)nc1ccccc14 (some centres not stated) | inconclusive: 1.58 µM [quencher, full curve]
CC(C)CCn1c(N)c(C(=O)NCc2cccs2)c2nc3ccccc3nc21 | inactive
CCc1ccc(NC(=O)CN2C(=O)C3(SCC(=O)N3c3ccc(F)c(F)c3)c3ccccc32)cc1 (configuration not stated) | inconclusive: 0.0398 µM [falling, full curve, poor fit]
Clc1cccc(N2CCNCC2)c1 | active: 28.2 µM [fluorescent]
O=C1NC(=O)N(c2ccc(Cl)cc2)C(=O)/C1=C\c1ccc(Sc2nc3ccccc3[nH]2)o1 | active: 44.7 µM [fluorescent]
Cc1ccc(C)c(N2CCN(C(=O)C3CCN(Cc4nc(-c5cccc(Cl)c5)oc4C)CC3)CC2)c1 | inconclusive: 0.0141 µM [falling, full curve, poor fit]
O=[N+]([O-])c1ccc(N2CCCCC2)c2ncccc12 | inactive

SMILES | Potency
CO/C1=C\C(C)=C\[C@@H](C)[C@@H](O)[C@@H](C)C/C(C)=C/C=C/[C@H](OC)[C@@H]([C@@H](C)[C@@H](O)[C@H](C)[C@@]2(O)C[C@@H](O)[C@H](C)C(C(C)C)O2)OC1=O (some centres not stated) | inconclusive: 1.41 µM [quencher, full curve]
C1=C(c2c[nH]c3ccccc23)CCNC1 | inactive
Cc1ccc(OCC(=O)Nc2ccc(Cl)cc2C(=O)c2ccccc2)cc1 | inconclusive: 316 µM [quencher, partial curve]
OCCNc1c2c(nc3ccccc13)CCCC2 | inactive
F/C(COc1ccc2c(c1)[nH]c1ccccc12)=C1/CN2CCC1CC2 | inconclusive: 112 µM [falling, partial curve, poor fit]
COc1ccc(/C=C/C(=O)Nc2ccc(C)cc2)cc1 | inconclusive: 17.8 µM [quencher, partial curve]
CC(C)(O)C(Cl)(Cl)Cl | inconclusive: 112 µM [falling, partial curve, poor fit]
CN1C(=O)NC(=O)/C(=C/c2ccc([N+](=O)[O-])s2)C1=O | inactive
CCC[CH2][Sn]([CH2]CCC)([CH2]CCC)[O][Sn]([CH2]CCC)([CH2]CCC)[CH2]CCC | inactive
CCCCN1C(=O)/C(=C/c2ccc(N(C)C)cc2)C(=O)N(Cc2ccco2)C1=O | active: 39.8 µM [fluorescent]
N#Cc1cc(I)c(O)c(I)c1 | inactive
CN(C)[C@@H]1C(=O)C(C(N)=O)=C(O)[C@@]2(O)C(=O)C3=C(O)c4c(O)ccc(Cl)c4[C@@](C)(O)C3C[C@@H]12 (some centres not stated) | active: 39.8 µM [quencher]
[O]=[Cr](=[O])([OH])[O][Cr](=[O])(=[O])[OH] | inconclusive: 44.7 µM [quencher, partial curve] and inconclusive: 39.8 µM [quencher, partial curve]
CC1(C)C[C@H]2C=C(C=O)[C@]3(C=O)C[C@]3(C)[C@H]2C1 | inactive
C[C@H]1CCC/C=C/[C@@H]2C[C@H](O)C[C@H]2[C@H](O)/C=C/C(=O)O1 | inconclusive: 0.708 µM [falling, full curve, poor fit]
OC[C@@H]1[C@@H](O)[C@H](O)[C@H]2[C@@H](O)CCN21 | inconclusive: 0.0355 µM [falling, full curve, poor fit]
CCCN(CCC)CCc1c[nH]c2ccc(C(N)=O)cc12 | inconclusive: 1.58 µM [falling, full curve, poor fit]
CCCCC/C=C\C/C=C\C/C=C\C/C=C\CCCC(=O)Nc1ccc(O)cc1C | active: 3.55 µM [quencher]
C/C(=N\Nc1ccccc1)c1c(O)n(Cc2ccccc2)c(=O)[nH]c1=O | active: 0.0708 µM [quencher]
O=C(N/N=C/c1c(O)n(CCC2=CCCCC2)c(=O)[nH]c1=O)c1ccccc1 | inconclusive: 2 µM [quencher, full curve]
C[C@]12CC[C@H]3[C@@H](CCC4=CC(=O)CC[C@@H]43)[C@@H]1CC[C@@H]2O | inconclusive: 126 µM [falling, partial curve, poor fit]

SMILES | Potency
CN1Cc2ccccc2[C@@H]2c3cccc4[nH]cc(c34)C[C@H]21 | inconclusive: 25.1 µM [fluorescent, full curve]
Cc1[nH]n(-c2ccccc2)c(=O)c1C(c1ccc([N+](=O)[O-])cc1)c1c(C)[nH]n(-c2ccccc2)c1=O | active: 0.355 µM [quencher]
O=C(O)c1ccccc1SCC(=O)N1c2ccccc2Sc2ccccc21 | active: 0.0891 µM [quencher]
COc1ccc(CCNC(=O)CCS(=O)(=O)c2ccc3c(c2)oc(=O)n3C)cc1OC | inconclusive: 0.251 µM [falling, full curve, poor fit]
CNC(=O)Oc1ccc2c(c1)[C@@]1(C)CCN(C)C1N2C (some centres not stated) | inconclusive: 0.0002 µM
Cn1c(SCC(=O)Nc2ccccc2F)nc2c([nH]c3ccccc32)c1=O | inconclusive: 0.0089 µM [falling, full curve, poor fit]
CC(C)N(CCC(C(N)=O)(c1ccccc1)c1ccccn1)C(C)C (configuration not stated) | inconclusive: 3.16 µM [quencher, full curve]
CCCCN1C(=O)/C(=C\c2ccco2)C(=O)N(CCc2ccccc2)C1=O | active: 28.2 µM [fluorescent]
O=C(O)c1ccc(-c2ccc3cc(C45CC6CC(CC(C6)C4)C5)c(O)cc3c2)cc1 | inconclusive: 79.4 µM [quencher, partial curve]
COc1ccc(N2CCN(C(=O)C3CCCN(S(=O)(=O)c4ccc5c(c4)CCCN5C(C)=O)C3)CC2)cc1 (configuration not stated) | inconclusive: 2.24 µM [falling, full curve, poor fit]
Nc1c(C(=O)Nc2ccc(Cl)cc2)sc2nc3c(cc12)N1CCC3CC1 | inconclusive: 20 µM [quencher, full curve]
CCOc1ccc(N2C(=O)NC(=O)/C(=C\c3ccc(N4CCOCC4)cc3C)C2=O)cc1 | inconclusive: 70.8 µM [rising, single point]
Cc1cccc(-n2c(/C=C/c3c(C)[nH]c4ccccc34)nc3ccccc3c2=O)c1 | inconclusive: 0.0008 µM [falling, full curve, poor fit]
Nc1c(C(=O)Nc2ccc(Br)cc2F)sc2nc3c(cc12)N1CCC3CC1 | active: 10 µM [quencher]
CC1Oc2cc3c(-c4c(O)cc(O)c5c(O)c6c(cc45)OC(C)C(C)C6=O)c(O)cc(O)c3c(O)c2C(=O)C1C (configuration not stated) | inconclusive: 31.6 µM [quencher, partial curve]
Cc1cccc2c1=NC(=O)/C(=C/c1c(O)[nH]c(=O)[nH]c1=O)C=2 | inconclusive: 2.24 µM [quencher, full curve]
O=C1C=CC(=O)c2c(O)cccc21 | active: 10 µM [quencher] and active: 8.91 µM [quencher]
COC[C@H]1OC(=O)c2coc3c2[C@@]1(C)C1=C(C3=O)[C@@H]2CCC(=O)[C@@]2(C)C[C@H]1OC(C)=O | active: 44.7 µM [fluorescent]
COc1ccc2[nH]cc(CCN=C(NC(=O)c3ccccc3OC)Nc3nc(C)cc(C)n3)c2c1 | inconclusive: 11.2 µM [quencher, full curve]
CC[C@@H]1/C=C/C=C/C[C@H](C)[C@@H](O)[C@](C)(O)C(=O)[C@H](C)[C@@H](O)[C@H](C)C(=O)[C@H](C)[C@@H](O)[C@H](C)/C=C/C(=O)O[C@H]2[C@@H](C)[C@@H](CC1)O[C@@]1(CC[C@@H](C)[C@@H](C[C@H](C)O)O1)[C@@H]2C | inconclusive: 44.7 µM [fluorescent, partial curve]
